Results: PubChem BioAssay AID1159614 (National Center for Advancing Translational Sciences (NCATS), 2016)
Among all 45,000 compounds or so, about 65 (0.1%) were called active. The call rests on the fitted dose curve; in most records, active means well fitted activation curve with a large enough effect; inconclusive means small, poorly fitted or top-dose-only effect; inactive means no such curve, though single readings can be large or run the other way. The list shows a part of the results.

Target: Galactocerebrosidase (Homo sapiens) (UniProt P54803)
Sequence of UniProt P54803 (P54803 whole entry, looked up): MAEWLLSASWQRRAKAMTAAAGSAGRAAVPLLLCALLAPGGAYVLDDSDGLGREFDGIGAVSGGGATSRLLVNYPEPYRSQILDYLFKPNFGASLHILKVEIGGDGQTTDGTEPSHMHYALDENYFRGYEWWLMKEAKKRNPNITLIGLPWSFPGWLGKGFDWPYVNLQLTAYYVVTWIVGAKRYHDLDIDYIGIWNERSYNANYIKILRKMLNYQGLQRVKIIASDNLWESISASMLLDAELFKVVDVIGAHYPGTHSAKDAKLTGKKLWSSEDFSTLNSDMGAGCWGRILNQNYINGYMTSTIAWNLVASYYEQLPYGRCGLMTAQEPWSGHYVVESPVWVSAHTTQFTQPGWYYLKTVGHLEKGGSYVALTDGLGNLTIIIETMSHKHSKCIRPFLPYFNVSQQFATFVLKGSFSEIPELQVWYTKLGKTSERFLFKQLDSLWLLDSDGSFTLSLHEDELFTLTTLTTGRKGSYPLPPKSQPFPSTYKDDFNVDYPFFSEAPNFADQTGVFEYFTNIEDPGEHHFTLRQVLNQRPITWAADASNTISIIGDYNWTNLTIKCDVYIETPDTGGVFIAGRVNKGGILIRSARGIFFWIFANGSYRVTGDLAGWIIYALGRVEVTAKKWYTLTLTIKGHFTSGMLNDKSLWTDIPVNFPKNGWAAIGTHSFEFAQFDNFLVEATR
Experiment: A Novel Cell-Based Assay to Identify Small Molecules for B -Galactocerebrosidase; further: 0% is about no effect; nearly all actives have a fitted effect of over 65% in size
Settings: 145M-Twi-hGALC-G270D cells, HMU-beta-Gal fluorescence, 48 h; series mostly up to 57.5 µM; activation: at the top concentration
In short: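 qHTS, 1536-well; 145M-Twi-hGALC-G270D cells (WT line also made) in DMEM/F12 + 10% FBS; compound incubation on live cells; HMU-β-gal 0.1 mM final, pH 5.2, NaTC; carbonate stop; fluorescence increase = enhanced residual activity.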

activation, inactive:
Cc1cccc(N(C)C(=O)Cn2cnc3nc4c(cc3c2=O)CCCC4)c1 -12.8%
Cc1nnc(N2CCC(C(=O)NC3CCC(C)CC3)CC2)c2nn(-c3ccc(Cl)cc3)c(C)c12 (stereo not drawn) -0.479%
Cc1ccccc1NC(=O)CSc1nccn1C -20.1%
Cc1nn(C)c2c1c(C(F)(F)F)cc(=O)n2CC(=O)Nc1ccc(F)cc1F -7.72%
Cc1cc(F)ccc1NC(=O)C1CCCN(C(=O)c2cnn(-c3ccccc3)c2-n2cccc2)C1 (stereo not drawn) 7.03%
COc1ccc(OC(=O)c2cn(-c3cccc(OC)c3)c(=O)c3ccccc23)cc1 -13%
Cc1ccc(OC(C)C(=O)N2CCN(CCc3ccccn3)CC2)cc1C (stereo not drawn) -11%
O=S(=O)(NCC(c1ccco1)S(=O)(=O)c1cccs1)c1ccccc1 (stereo not drawn) -4.09%
Cc1cc(C)c(NC(=O)C(C)n2nc(C)c3sc4ccccc4c3c2=O)c(C)c1 (stereo not drawn) -19.7%
COc1cccc(N2CC(NC(=O)c3cccs3)CC2=O)c1 (stereo not drawn) -14.5%
O=C(O)C(=O)Nc1cccc(-c2nn[nH]n2)c1 -3.7%
Cc1cc(Cl)ccc1NC(=O)C1CCCN(c2nnc(C)c3c(C)n(-c4ccccc4)nc23)C1 (stereo not drawn) -10.5%
CC(CCc1ccccc1)NC(=O)CSc1n[nH]c(-c2ccccc2Cl)n1 (stereo not drawn) -13.5%
CCc1ccc(CNC(=O)c2ccc(Cn3c(=O)c4cccn4c4cccnc43)cc2)cc1 -6.61%
CCCc1nnc(NC(=O)CSc2nnc3c4ccccc4n(CC)c3n2)s1 -19.7%
Cc1nc2ccccc2n1CCc1nc2c3ccccc3nc(SCc3ccccc3F)n2n1 -1.38%
Cc1cccc(OCC(=O)Nc2ccc3nc(SCc4ccccc4)sc3c2)c1 1.47%
COc1ccc(N(CC(=O)N2CCN(c3cccc(Cl)c3)CC2)S(=O)(=O)c2c(C)noc2C)cc1 -11.8%
CCOc1ccc(C(=O)N2CC(=O)Nc3ccc(F)cc3C2c2ccc(F)cc2)cc1 (stereo not drawn) -8.54%
COCCn1c(C)cc(O)c(C(c2cccc(F)c2)N2CCN(c3ccccc3)CC2)c1=O (stereo not drawn) -19.1%
CC(C)NC(=O)C1CCCN(S(=O)(=O)c2ccc3c(ccn3C)c2)C1 (stereo not drawn) -12.3%
CCc1cccc(C)c1NC(=O)c1cc(CN2CCCC2)on1 -7.58%
O=C(Nc1ccc2oc(-c3cccc4c(Br)cccc34)nc2c1)c1cccc(Cl)c1 -19.1%
COc1cc(C(=O)N2CCCCCCC2)cc(OC)c1OC -16.6%
CCc1nnc2c(Nc3cc(OC)c(Cl)cc3OC)nc3ccccc3n12 -6.61%
COc1ccc(-c2oc3ncn4nc(COc5ccc(Cl)cc5)nc4c3c2-c2ccc(OC)cc2)cc1 -17.6%
CCc1ccc(S(=O)(=O)c2cn(C)c3ccc(C)cc3c2=O)cc1 -13.1%
CN1CCN(C(=O)C2CCCCC2)CC1 -13.1%
